Test results from the supplement of paper PMC3334620.
In all, about 33,000 sequences were measured (“E-score (-0.5 to 0.5)”: median about -0.016, highest 2% from about 0.31 on). This is one part of the list.

Target: Cst6 (UniProt P40535)
Assay: PBM E-score (8-mer binding enrichment) (E-score (-0.5 to 0.5)); higher = stronger / more preferred TF binding; most listed sequences are background and not binding sites
Details: protein concentration: 200 nM; construct: GST-DNA-binding domain
Method in brief: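 GST-tagged yeast TFs (full-length or DNA-binding domain) were made by PURExpress in vitro transcription/translation and applied at about 100-200 nM to universal all-10-mer Agilent arrays. The arrays were made double-stranded by primer extension, on fresh or once-stripped slides. Bound protein was detected with fluorescent anti-GST, and scans were normalised with masliner. Each ungapped eight-base word, pooled with its reverse complement, received an E-score (modified Wilcoxon-Mann-Whitney statistic) from the Universal PBM Analysis Suite.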

Sequence | PBM E-score
GCGCCTAA | 0.106
AGAGATTA | 0.166
TCAGGCCA | -0.092
AGTGTTAG | -0.00863
AGTCATTG | 0.0787
CCACGGCA | 0.235
TAAGGCAA | 0.105
ATACCTTA | 0.0235
AGATACCA | 0.117
AGCGGAAA | 0.062
ACTCTCAT | -0.0608
CCATGTAA | 0.0285
GGCTGTCA | -0.152
ACAGGGAG | -0.0732
CCGAACTC | -0.109
AGTGCAGG | -0.117
GGGGTTAC | -0.15
CTTGGACC | -0.372
CGGGAATA | 0.0392
AGCAGAAC | -0.0649
GACCATAC | -0.0669
GGCGACCC | -0.387

Sequence | PBM E-score
CGTATTGC | 0.0567
ACGTTGGC | -0.103
GACTGGTA | -0.111
AGCACTTG | -0.262
AAACGCAG | 0.00743
AAGTTCAG | -0.0271
CGCTGACC | -0.0695
AGTTAAGA | 0.161
ACCTTCCC | -0.261
CTAGCACC | -0.105
CAAGTGTA | -0.0263
GCGCGCAA | 0.0621
CTACTATA | 0.0554
ACAAGGAA | 0.0873
ACAATCCC | -0.0598
AAGTTGGT | 0.0462
AGTACTCA | -0.0616
GTACCGGA | -0.0963
GGGGGTTA | -0.335
CCGGGATA | -0.0818
CGCCGTCC | 0.249
CTATGTGC | 0.0139

Sequence | PBM E-score
CGGGCGAC | -0.319
AGTCGTGA | -0.0872
CCGGTCTC | -0.364
AGCATGCG | 0.0753
ACTAGAGA | -0.0352
AGCGTGGC | -0.15
CTGTCGGC | -0.198
CCAGCTGC | -0.302
GATTTGAC | 0.148
AATCTATG | 0.151
ATAAGCTC | -0.0286
CGAAACCC | -0.122
ACACGCTG | 0.0359
CATAGTTA | 0.041
ACTTCGCT | 0.0091
ATAGCCCA | -0.0798
CCCCGCGA | -0.342
CCCTGACA | -0.142
CGGAGGTC | -0.146
TACAACGA | 0.0528
CAATTTGA | 0.131
GAGGACAA | -0.137

Sequence | PBM E-score
GCTCAGCC | -0.284
GGGACCAA | -0.116
CAAACTAA | 0.277
AAGGATTC | -0.106
CCTTACAA | -0.0094
AGTAGTAG | -0.0792
AATATACT | 0.0947
ACTTGCCC | -0.215
GAGGGGCC | -0.32
CTCCGCCA | -0.196
CGATCCCG | -0.31
TATGGTGA | 0.186
CCGCCACA | -0.196
CTTTTTCC | 0.0424
AGATATAT | 0.206
CGCCAACC | -0.209
GGTAGAAA | 0.0718
GCATCTCC | -0.164
ACACTCTC | -0.0948
AGCGAAAC | 0.193
